{"source": "PubChem BioAssay AID686978", "about": "(National Center for Advancing Translational Sciences (NCATS), 2013)", "note": "Where “and” joins values, the source holds several entries; their conditions need not be identical. Equal entries are not always repeated. In all, about 420,000 compounds went through this assay and about 64,000 (15%) were called active. Inconclusive results, whose numbers are uncertain, are shown with a selection of clear calls. Calls come from the whole dose curve; as a rule, active = well fitted inhibition curve with a large enough effect; inconclusive = small, poorly fitted or top-dose-only effect; inactive = flat fitted curve, though single readings scatter. A potency beside an inconclusive call is a rough fit, not a confirmed value. % is set by controls: 0 for no effect and ±100 for the full control effect; potency is the fitted concentration of half-maximal effect; tags give direction and shape of the fitted curve."}
{"assay": "qHTS for Inhibitors of human tyrosyl-DNA phosphodiesterase 1 (TDP1): qHTS in cells in absence of CPT; note: nearly all actives have a fitted effect of over 55% in size", "settings": "DT40 Tdp1-/- hTDP1 cells, no CPT, ATP luminescence, 48 h; activity change, negative = growth inhibition: at 46.2 µM (top of the series)", "in_short": "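DT40 Tdp1-/-;hTDP1 cells, no CPT (DMSO vehicle only), 400 cells/well; compounds pin-transferred; ≥48 hr, 37 °C; CellTiter-Glo 30 min RT dark, luminescence read.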"}
{"smiles": "COC(=O)c1ccc(NC(=O)CC2Nc3cc(C)c(C)cc3NC2=O)cc1", "note": "(stereo not given)", "Potency": "inconclusive: 20.6 µM [inhibitor, single point]"}
{"smiles": "COc1ccccc1N1CCN(CC(=O)Nc2ccccc2C(=O)NC(C)c2ccccc2)CC1", "note": "(stereo not given)", "Potency": "active: 18.4 µM"}
{"smiles": "COc1ccccc1NCc1cccn1-c1nnc(N2CCCCCC2)s1", "Potency": "inconclusive: 20.6 µM [inhibitor, single point]"}
{"smiles": "Nc1ccc(Oc2ccc(Cl)cc2)cc1", "Potency": "inactive"}
{"smiles": "Cc1nnc(N/N=C/c2ccccc2F)n1N", "Potency": "inactive"}
{"smiles": "Nc1nc2ccc(Cl)cc2cc1C(=O)NCCc1ccc(O)cc1", "Potency": "active: 18.4 µM"}
{"smiles": "CCCC1CC(C)(C(=O)Cn2[nH]c(=O)ccc2=O)OC1=O", "note": "(stereo not given)", "Potency": "inactive"}
{"smiles": "O=C(NCCc1ccccn1)C1CCCN1S(=O)(=O)c1ccc(Cl)cc1", "note": "(stereo not given)", "Potency": "inactive"}
{"smiles": "O=C(CCCN1C(=O)/C(=C/c2cccs2)SC1=S)NNC(=O)c1ccncc1", "Potency": "inconclusive: 25.9 µM [inhibitor, single point]"}
{"smiles": "COCCCN(C(C)=O)c1nc(-c2ccc(OC)cc2)cs1", "Potency": "inconclusive: 23.1 µM [inhibitor, single point]"}
{"smiles": "Cc1ccc(S(=O)(=O)Nc2c(NC3CCCCC3)c3ccccc3oc2=O)c(C)c1", "Potency": "inconclusive: 29.1 µM [inhibitor, single point]"}
{"smiles": "COc1ccc(C2C3(C#N)C(N)=NC(OC)(OC)C23C#N)cc1", "note": "(stereo not given)", "Potency": "inconclusive: 18.4 µM [inhibitor, single point]"}
{"smiles": "CCOc1cc(N)c(Cl)cc1C(=O)NCC1CN(Cc2ccc(F)cc2)CCO1", "note": "(stereo not given)", "Potency": "inconclusive: 29.9 µM [inhibitor, single point] and inconclusive: 23.1 µM [inhibitor, single point]"}
{"smiles": "CS(=O)(=O)N(CC(=O)NCCSCc1ccccc1)c1ccccc1Br", "Potency": "inconclusive: 29.1 µM [inhibitor, single point]"}
{"smiles": "O=C(O)/C(=C\\c1cccs1)c1ccc(F)cc1", "Potency": "inactive"}
{"smiles": "COC(=O)c1ccccc1NC(=O)c1sc(N)nc1C", "Potency": "inconclusive: 23.1 µM [inhibitor, single point]"}
{"smiles": "COc1ccc(Cc2nc3ccc(C(=O)N(C)C(C)c4nccs4)cc3o2)cc1", "note": "(stereo not given)", "Potency": "inactive"}
{"smiles": "CN(C)C(CNC(=O)CCC(=O)c1ccc(Br)cc1)c1ccccc1", "note": "(stereo not given)", "Potency": "inconclusive: 23.1 µM [inhibitor, single point]"}
{"smiles": "COc1ccc(C2c3c(n(C)c4ccccc34)C(=O)N2CC(=O)Nc2cc(Cl)ccc2C)cc1", "note": "(stereo not given)", "Potency": "active: 20.6 µM"}
{"smiles": "CCN(CC)S(=O)(=O)c1ccc(NC(=O)c2ccc(N3CCCC3=O)cc2)cc1", "Potency": "inconclusive: 18.4 µM [inhibitor, single point]"}
{"smiles": "Clc1ccccc1-c1ccc2ncnc(NCCN3CCOCC3)c2c1", "Potency": "inconclusive: 23.1 µM [inhibitor, single point]"}
{"smiles": "Cc1c(Cl)cccc1N=c1c([N+](=O)[O-])nn(-c2ccccc2)n1O", "Potency": "inactive"}
{"smiles": "CCc1ccc(NC(=O)C2=CC(c3ccc(OC)c(OC)c3)=NS(=O)(=O)N2C)cc1", "Potency": "active: 18.4 µM"}
{"smiles": "Cc1ccc(NC(=S)N(Cc2cccs2)Cc2cc3cc(C)cc(C)c3[nH]c2=O)cc1", "Potency": "inconclusive: 29.1 µM [inhibitor, single point]"}
{"smiles": "Cc1ccc2onc(CC(=O)Nc3cccc(C(F)(F)F)c3)c2c1", "Potency": "inconclusive: 25.9 µM [inhibitor, single point]"}
{"smiles": "O=C1CCC/C1=c1\\s/c(=C\\c2cccnc2)c(=O)n1-c1ccccc1", "Potency": "active: 16.4 µM"}
{"smiles": "CCOC(=O)N1CCN(C(=O)CN(c2cccc(Cl)c2)S(=O)(=O)c2ccccc2)CC1", "Potency": "inconclusive: 11.6 µM [inhibitor, partial curve]"}
{"smiles": "CCCc1cc(=O)n2[nH]c(NC(=O)c3ccccc3Cl)nc2n1", "Potency": "inactive"}
{"smiles": "CCn1ncc(C2=NOC(C(=O)Nc3ccccc3C(=O)OC)C2)c1C", "note": "(stereo not given)", "Potency": "inconclusive: 23.1 µM [inhibitor, single point]"}
{"smiles": "CC(=O)N1CCN(Cc2nc3cc(NC(=O)c4cccc(Br)c4)ccc3n2C)CC1", "Potency": "inconclusive: 32.6 µM [inhibitor, partial curve]"}
{"smiles": "O=C(Nc1ccccn1)c1ccc(Cl)c([N+](=O)[O-])c1", "Potency": "inconclusive: 29.1 µM [inhibitor, single point]"}
{"smiles": "COc1ccc(C(=O)OC2CC3CC[C@H](C2)N3C(C)=O)cc1OC", "note": "(stereo not given in full)", "activity change, negative = growth inhibition": "inactive: -4.58% [at 9.04 µM]"}
{"smiles": "O=C(COC(=O)c1ccccc1NCCO)NNC(=O)c1cccs1", "Potency": "inconclusive: 11.6 µM [inhibitor, partial curve]"}
{"smiles": "CCOC(=O)c1ccc(N2C(=O)c3[nH]nc(-c4ccc(OC)cc4)c3C2c2ccccc2Cl)cc1", "note": "(stereo not given)", "Potency": "active: 23.1 µM"}
{"smiles": "Cc1ccc(NC(=O)N2CCc3cc(S(=O)(=O)N4CCC(C)CC4)ccc32)cc1F", "Potency": "inconclusive: 5.8 µM [inhibitor, partial curve]"}
{"smiles": "COc1ccc(-c2cc3ccccc3oc2=O)cc1NC(=O)c1ccc(Br)o1", "Potency": "inconclusive: 16.4 µM [inhibitor, partial curve]"}
{"smiles": "Cn1cc(CNCC2CCCO2)c(-c2ccc(Oc3ccccc3)cc2)n1", "note": "(stereo not given)", "Potency": "inconclusive: 29.1 µM [inhibitor, single point]"}
{"smiles": "O=C(Nc1cccc(-c2nc3ccccc3c(=O)o2)c1)c1ccccc1", "Potency": "inconclusive: 29.1 µM [inhibitor, single point]"}
{"smiles": "CCCOC(=O)c1ccc(NC(=O)C(=O)NCCN(CC)CC)cc1", "Potency": "inactive"}
{"smiles": "COc1ccc(CC(=O)N(Cc2ccccc2)c2ccc(C)cc2)cc1OC", "Potency": "inconclusive: 23.1 µM [inhibitor, single point]"}
{"smiles": "C=CCn1c(SCC(=O)Nc2ccc(Br)cc2)nc(O)cc1=O", "Potency": "inactive"}
{"smiles": "CCN(C(=O)COC(=O)CNC(=O)c1sc2ccccc2c1Cl)C1CCCCC1", "Potency": "inactive"}
{"smiles": "Cc1cccc(OCC(=O)N/N=C\\c2cccn2C)c1C", "Potency": "inconclusive: 16.4 µM [inhibitor, partial curve]"}
{"smiles": "N#Cc1cccc(NC(=O)N2CC3(CCN(C(=O)c4ccco4)CC3)C2)c1", "Potency": "inactive"}
{"smiles": "Cc1ccc(NC(=O)c2cc(S(=O)(=O)N3CCc4ccccc43)cn2C)cc1", "Potency": "inconclusive: 13 µM [inhibitor, single point]"}
{"smiles": "CCC(C)(C)C1CCC2(CC1)NC(=O)N(CC(=O)N1CCN(c3ccccc3OC)CC1)C2=O", "note": "(stereo not given)", "Potency": "active: 20.6 µM"}
{"smiles": "COc1cccc(CNC(=O)c2cc(S(=O)(=O)N3CCCCCC3)cn2C)c1", "Potency": "inconclusive: 25.9 µM [inhibitor, single point]"}
{"smiles": "Cc1n[nH]c(C)c1S(=O)(=O)N1CCCC(C(=O)NCc2ccc(F)cc2)C1", "note": "(stereo not given)", "Potency": "inactive"}
{"smiles": "COc1ccc(-c2nc(NCCN(C)C)nc3ccsc23)c(C)c1", "Potency": "inconclusive: 0.103 µM [inhibitor, full curve, poor fit]"}
{"smiles": "COc1ccccc1NC(=O)C/C(C)=N/NC(=O)COc1c(Br)cc(Br)cc1OC", "Potency": "inconclusive: 14.6 µM [inhibitor, single point]"}
{"smiles": "O=C(C1CCCCC1)N1C[C@@H](O)[C@H](n2cc(C3CC3)nn2)C[C@@H]1c1ccccc1", "Potency": "inactive"}
{"smiles": "Cc1ccnc(NCc2ccccc2O)c1", "Potency": "inactive"}
{"smiles": "CCOC(=O)CSc1nc2cc3c(cc2c(=O)n1CCCC(=O)NCCc1ccc(OC)c(OC)c1)OCO3", "Potency": "active: 13 µM"}
{"smiles": "Cc1cc(NC(=O)c2ccc([N+](=O)[O-])cc2Cl)no1", "Potency": "inactive"}
{"smiles": "CN(C)c1ccc(C(C(=O)NC2CCCC2)N(C(=O)c2csnn2)C2CC2)cc1", "note": "(stereo not given)", "Potency": "inactive"}
{"smiles": "COc1ccc(-c2ccoc2)cc1[C@H]1[C@H]2C=CC[C@@H](C)[C@@H]2C(=O)N1Cc1ccccc1", "Potency": "inconclusive: 29.1 µM [inhibitor, single point]"}
{"smiles": "O=C1N/C(=C/c2ccc(Br)cc2)C(O)=C1C=NCc1ccccc1", "Potency": "active: 2.31 µM"}
{"smiles": "Cc1ccc(CNC(=O)CCCn2nc(C)c3c(C)n(-c4ccccc4)nc3c2=O)cc1", "Potency": "inactive and inconclusive: 16.4 µM [inhibitor, partial curve]"}
{"smiles": "NS(=O)(=O)c1ccc(CNC(=O)c2ccc(NS(=O)(=O)c3cccs3)cc2)cc1", "Potency": "inactive"}
{"smiles": "O=S(=O)(c1ccccc1C(F)(F)F)N1CCN(c2nc(-c3cccs3)nc3ccccc23)CC1", "Potency": "active: 11.2 µM"}
{"smiles": "CCN1CCc2nc3sc(C(=O)N4CCc5ccccc5C4)c(N)c3cc2C1", "Potency": "inconclusive: 23.1 µM [inhibitor, single point]"}
{"smiles": "Cc1cccc(N2CCN(C(=O)c3cc(S(=O)(=O)N4CCCC4)cn3C)CC2)c1C", "Potency": "inconclusive: 29.1 µM [inhibitor, single point]"}
{"smiles": "CN(C(=O)COC(=O)c1c2c(nc3ccccc13)/C(=C/c1cccc([N+](=O)[O-])c1)CCC2)C1CCS(=O)(=O)C1", "note": "(stereo not given)", "Potency": "active: 5.17 µM"}
{"smiles": "CCc1cccc(NS(=O)(=O)c2ccc3c(c2)n(C)c(=O)c(=O)n3C)c1", "Potency": "inconclusive: 18.4 µM [inhibitor, single point]"}
{"smiles": "CC(C)N(Cc1nc(-c2ccccc2)no1)C(=O)C(Cl)(Cl)Cl", "Potency": "inactive"}
{"smiles": "COCCn1c(=N)c(C(=O)NCCc2ccccc2)cc2c(=O)n3cccc(C)c3nc21", "Potency": "inconclusive: 25.9 µM [inhibitor, single point]"}
{"smiles": "Cc1ccc(CNC(=O)C2CCCN(c3nn4c(=O)cc(C)nc4s3)C2)cc1", "note": "(stereo not given)", "Potency": "inconclusive: 14.6 µM [inhibitor, single point]"}
{"smiles": "CCC(NC(=O)CCCc1ccccc1)c1ccccc1", "note": "(stereo not given)", "activity change, negative = growth inhibition": "inconclusive: -31.7% [inhibitor]"}
{"smiles": "CN1CCC(NC(=O)c2cc(-c3cccc(Br)c3)nc3ccccc23)CC1", "Potency": "inconclusive: 29.1 µM [inhibitor, single point]"}
{"smiles": "CS(=O)(=O)N(CC(=O)N1CCCCCC1)c1cccc(Cl)c1Cl", "Potency": "inactive"}
{"smiles": "COc1cc(/C=C/CO)cc(OC)c1OC/C=C(\\C)CCC=C(C)C", "Potency": "inconclusive: 29.1 µM [inhibitor, single point]"}
{"smiles": "OC(c1ccc(F)cc1)c1nc(-c2cncnc2)cs1", "note": "(stereo not given)", "Potency": "inactive"}
{"smiles": "O=C(Nc1ccc(N2CCN(C(=O)c3ccc(Cl)cc3)CC2)cc1)c1ccc([N+](=O)[O-])o1", "Potency": "active: 1.16 µM"}
{"smiles": "CCCCCCCNC(=O)C1(CC2CC(c3cccc(Br)c3)=NO2)CCN(C(=O)C2CCCC2)CC1", "note": "(stereo not given)", "Potency": "inconclusive: 23.1 µM [inhibitor, single point]"}
{"smiles": "CCOC(=O)C1=C(C)N(C[C@@H]2CC[C@@H](Cc3ccc4cc(OC)ccc4c3)O2)C(=O)NC1c1ccccc1", "note": "(stereo not given in full)", "Potency": "inconclusive: 18.4 µM [inhibitor, single point]"}
{"smiles": "COc1ccc(-c2nnn(CC(=O)N(Cc3ccco3)C(C(=O)NCC3CCCO3)c3ccco3)n2)cc1", "note": "(stereo not given)", "activity change, negative = growth inhibition": "inconclusive: -34.9% [inhibitor]"}
{"smiles": "CCn1ncc(C2=NOC(C(=O)Nc3ccc4c(c3)OCO4)C2)c1C", "note": "(stereo not given)", "Potency": "inconclusive: 1.3 µM [inhibitor, full curve, poor fit]"}
{"smiles": "CC(C)c1ccc(-c2nc(N3CCOCC3)[nH]c(=O)c2C#N)cc1", "Potency": "inactive"}
{"smiles": "COc1cccc2c3c(c(=O)[nH]c12)CCC(C)(C)O3", "Potency": "inconclusive: 1.3 µM [inhibitor, full curve, poor fit]"}
{"smiles": "CC1CCN(c2nc3ccccc3nc2SCC(=O)Nc2ccccc2C(C)C)CC1", "Potency": "inconclusive: 29.1 µM [inhibitor, single point]"}
